PubChem BioAssay AID686978 (National Center for Advancing Translational Sciences (NCATS), 2013)
Values joined by “and” are separate entries in the source; they are usually repeats but may differ in a detail not shown here. Equal values may be shown once. Out of some 420,000 compounds screened, about 64,000 (15%) were called active. Inconclusive results, whose numbers are uncertain, are shown with a selection of clear calls. Calls follow the shape of the dose curve; as a rule, active = well fitted inhibition curve with a large enough effect; inconclusive = small, poorly fitted or top-dose-only effect; inactive = flat fitted curve, though single readings scatter. Where the call is inconclusive, the potency comes from a doubtful curve fit.

Experiment: qHTS for Inhibitors of human tyrosyl-DNA phosphodiesterase 1 (TDP1): qHTS in cells in absence of CPT; also: nearly all actives have a fitted effect of over 55% in size
Conditions: DT40 Tdp1-/- hTDP1 cells, no CPT, ATP luminescence, 48 h; activity change, negative = growth inhibition: at 46.2 µM (top of the series) unless noted
How it was run: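 Chicken DT40 Tdp1-/- cells complemented with human TDP1, screened without camptothecin (DMSO vehicle only), 400 cells/well. Compounds pin-transferred, cells incubated at 37 °C for at least 48 hr. Growth read as ATP-dependent luminescence (CellTiter-Glo, 30 min at RT).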
% is scaled to controls: 0 for no effect and ±100 for the full control effect; potency is read from the fitted curve at half-maximal effect; tags tell the direction and shape of the fitted curve.

| SMILES | Potency | activity change, negative = growth inhibition |
| --- | --- | --- |
| CCN(CC)C(=O)c1ccc(NC(=O)c2ccc(-n3cncn3)c([N+](=O)[O-])c2)cc1 | inconclusive: 25.9 µM [inhibitor, single point] |  |
| COc1ccc(-n2c(=O)[nH]c3ccccc3c2=O)cc1 |  | inactive: -10.4% |
| CC(C)c1ccc(NC(=O)C2CCC(CNS(=O)(=O)c3ccc4c(c3)CCCC(=O)N4)CC2)cc1 (stereo unspecified) | active: 16.4 µM |  |
| Cc1ccccc1NP(=O)(Oc1ccccc1F)Oc1ccccc1F | inconclusive: 18.4 µM [inhibitor, single point] |  |
| Cc1ccc(-c2nc3ccccc3c(=O)n2-c2ncccc2C)cc1 | inconclusive: 16.4 µM [inhibitor, partial curve] |  |
| COc1cccc(Oc2coc3cc(OC(=O)N(C)C)ccc3c2=O)c1 | inconclusive: 25.9 µM [inhibitor, single point] |  |
| COc1ccc(NP(=O)(Oc2ccccc2OC)Oc2ccccc2OC)cc1 | active: 16.4 µM |  |
| Cc1ccccc1-c1nc(CS(=O)CC(=O)N2CCC3(CC2)OCCO3)c(C)o1 (stereo unspecified) |  | inactive: -0.974% |
| C[C@]12CCC3C(CC[C@@H]4C[C@@H](O)CC[C@]34C)C1CC[C@@H]2O (stereo partly specified) | inconclusive: 5.8 µM [inhibitor, single point] |  |
| C/C(=C\C=C/[C@@H](C)C(=O)O)[C@H]1CN[C@H](C(=O)O)[C@@H]1CC(=O)O |  | inactive: -13% |
| Cc1ccc(-n2c(/C=C/c3cccc(C(F)(F)F)c3)nc3ccccc3c2=O)cc1 | inconclusive: 29.1 µM [inhibitor, single point] |  |
| COc1ccc2c(c1)C(NC(C)=O)CCc1cc(OC)c(OC)c(OC)c1-2 (stereo unspecified) | active: 0.0184 µM |  |
| Cc1ccc(S(=O)(=O)Nc2ccc3ncccc3c2[N+](=O)[O-])cc1 | inconclusive: 20.6 µM [inhibitor, single point] |  |
| CN1CCN(c2ncnc3nc[nH]c23)CC1 |  | inactive: 14.9% |
| Cn1c(O)c(C(=NCCc2c[nH]c3ccccc23)c2ccccc2)c(=O)n(C)c1=O | inconclusive: 29.1 µM [inhibitor, single point] |  |
| C=C(C)[C@@H]1CC[C@]2(C(=O)O)CC[C@]3(C)C(CCC4[C@@]5(C)CC[C@H](O)C(C)(C)C5CC[C@]43C)C12 (stereo partly specified) | active: 7.31 µM |  |
| CC(C)[C@@H]1CN[C@H](C(=O)O)[C@@H]1CC(=O)O |  | inactive: -16.2% |
| Cc1ccc(C)c(S(=O)(=O)c2nnn3c2nc(N2CCCC2)c2sccc23)c1 | inconclusive: 16.4 µM [inhibitor, single point] |  |
| CCOC(=O)C1(CCc2ccccc2)CCN(Cc2cccc3cnccc23)CC1 | inconclusive: 29.1 µM [inhibitor, single point] |  |
| CCCCn1c(C)c(C(=O)O)c2cc(OC)c3ccccc3c21 |  | inactive: 8.41% |
| CCn1nc(-c2ccccc2)nc2c(=O)n(C)c(=O)nc1-2 | active: 2.59 µM |  |
| CCOC(=O)c1[nH]c(C)c(C(=O)N2CCC3(CC2)OCCO3)c1C |  | inactive: -2.63% |
| Cc1ccc(NP(=O)(Oc2ccccc2F)Oc2ccccc2F)cc1C | inconclusive: 29.1 µM [inhibitor, partial curve, poor fit] |  |
| Cc1ccc(N2CC(C(=O)Nc3cc(S(=O)(=O)N4CCCCC4)ccc3C)CC2=O)cc1 (stereo unspecified) | active: 5.8 µM |  |

| SMILES | Potency | activity change, negative = growth inhibition |
| --- | --- | --- |
| CC(C)(C)c1cc(C=C(C#N)C#N)cc(C(C)(C)C)c1O | active: 651 nM and active: 1.12 µM |  |
| COc1cc(C2c3cc4c(c(O)c3CC3COC(=O)C32)OCO4)cc(OC)c1O (stereo unspecified) | inconclusive: 14.1 µM [inhibitor, partial curve, poor fit] |  |
| Cc1ccc(Cl)cc1NC(=O)Cn1c(=O)oc2cc(S(=O)(=O)N3CCCCCC3)ccc21 | active: 16.4 µM |  |
| N=C1c2ccccc2CN1c1ccc(F)c([N+](=O)[O-])c1 | inconclusive: 14.6 µM [inhibitor, partial curve] |  |
| CCOP(=O)(OCC)c1cc(CC)ccc1O |  | inactive: -1.52% |
| COc1cccc(N(C(C)=O)C2=NCCCS2)c1 |  | inactive: 5.08% |
| COc1ccc(-[n+]2c(-c3ccccc3)cc(-c3ccccc3)cc2-c2ccccc2)cc1 | active: 0.259 µM |  |
| CCOC(=O)c1ccc(NC(=O)N2CC3CC(C2)c2cccc(=O)n2C3)cc1 (stereo unspecified) |  | inactive: -12% |
| CCOC(=O)C1=C(c2ccccc2)OC(N)=C(C#N)C1C(C)C (stereo unspecified) | inconclusive: 23.1 µM [inhibitor, single point] |  |
| Cc1ccc(N/N=C/c2c(O)n(-c3ccccc3)c(=O)[nH]c2=O)cc1 | inconclusive: 25.9 µM [inhibitor, single point] |  |
| CC(=O)Nc1cc(-c2cccc(CO)c2)cn2c(-c3cccc(C(F)(F)F)c3)cnc12 | active: 18.4 µM |  |
| COc1ccc(CCCc2nnc(SCC(=O)Nc3ccc(C)c(C)c3)o2)cc1 | inactive and inconclusive: 29.1 µM [inhibitor, single point] |  |
| CCn1c(O)c(C=NCCN2CCOCC2)c(=O)n(CC)c1=S |  | inconclusive: -33.7% [inhibitor] |
| C[C@@H]1C(=O)O[C@H]2[C@H](O)[C@]34[C@@H]5OC(=O)[C@]3(OC3OC(=O)[C@H](O)C34[C@H](C(C)(C)C)[C@@H]5O)[C@@]12O (stereo partly specified) |  | inactive: -9.55% |
| COC(=O)[C@@H]1N=C(c2ccc(OC)cc2)O[C@]12C(=O)N(C)c1ccc(Cl)cc12 | inconclusive: 23.1 µM [inhibitor, single point] |  |
| Cc1sc2ncnc(N3CCC(C(=O)Nc4ccc(C#N)c(Cl)c4)CC3)c2c1C | inconclusive: 20.6 µM [inhibitor, single point] |  |
| COC(=O)c1ccc(NC2=C(Cl)C(=O)OC2OC(=O)c2ccccc2)cc1 (stereo unspecified) | inconclusive: 29.1 µM [inhibitor, single point] |  |
| C[C@@H]1C[C@@H]([C@H](O)CC2CC(=O)NC(=O)C2)C(=O)[C@@H](C)C1 | active: 119 nM and active: 59.6 nM and active: 164 nM |  |
| Cc1ccccc1CN1CCNCC1 |  | inactive: 1.75% |
| COc1ccc(-c2nn(CCC#N)cc2C(=O)Nc2ccccc2Br)cc1 | inconclusive: 2.31 µM [inhibitor, partial curve, poor fit] |  |
| O=C(NC(=O)c1c(F)cccc1F)Nc1ccc(Cl)cc1 |  | inactive: -6.59% |
| CCCCN1C(=O)NC(=O)C2(Cc3c(nc4c(C)cccn4c3=O)N3CCc4ccccc4C32)C1=O (stereo unspecified) | active: 16.4 µM |  |
| Cc1ccc2scc(N3CCN(C)CC3)c(=O)c2c1 |  | inactive: -15.2% |
| N#CC(C#N)=Cc1cc(O)c(O)c([N+](=O)[O-])c1 |  | inactive: -19.8% |

| SMILES | Potency | activity change, negative = growth inhibition |
| --- | --- | --- |
| O=C(COc1ccccc1)N1CCN(CCN2C(=O)c3cccc4cccc(c34)C2=O)CC1 | inconclusive: 23.1 µM [inhibitor, single point] |  |
| CC[C@H]1CN(C)CCc2c([nH]c3ccccc23)C(=O)C[C@@H]1/C(=C\OC)C(=O)OC |  | inactive: -18.8% |
| COCCNC(=O)c1c(NC(=O)c2ccco2)n(Cc2ccccc2)c2nc3ccccc3nc12 | active: 20.6 µM |  |
| COc1cccc(CN2CCN(c3ccc(F)cc3)CC2)c1OC | inconclusive: 18.4 µM [inhibitor, single point] |  |
| Cc1ccc2nc(C)n(-c3ccc(F)cc3)c(=O)c2c1 | inconclusive: 29.1 µM [inhibitor, single point] |  |
| CCCCn1c(=O)c(C=Nc2cc([N+](=O)[O-])ccc2OC)c(O)n(CCCCl)c1=O |  | inactive: -29.1% |
| C[n+]1ccc(-c2ccncc2)cc1 |  | inactive: 0.354% |
| Nc1ccc(CC(N)c2csc(Nc3ncccn3)n2)cc1 (stereo unspecified) | active: 10.3 µM |  |
| COC[C@H]([C@@H](O)[C@@H](O)C(=O)NCC[C@@H](C)c1nc(/C=C/C[C@H]2OC3(C[C@H](O)[C@H]2C)OC([C@@H](C[C@@H](O)[C@@H](C)[C@@H](O)[C@@H](C)/C=C(C)/C(C)=C/C=C/C(C)=C\C#N)OC)[C@@H](OP(=O)(O)O)C3(C)C)co1)N(C)C (stereo partly specified) | active: 0.0016 µM |  |
| COc1ccc(C2NCc3ccc4c(c3-n3cccc32)OCO4)cc1O (stereo unspecified) | active: 4.61 µM |  |
| CC(C)c1ccc(C(c2c(O)c3ccccc3oc2=O)c2c(O)c3ccccc3oc2=O)cc1 | inconclusive: 18.4 µM [inhibitor, single point] |  |
| O=C(C(Cc1ccccc1)NS(=O)(=O)c1cccc2nsnc12)N1CCC2(CC1)OCCO2 (stereo unspecified) | inconclusive: 16.4 µM [inhibitor, single point] |  |
| NC1CCCCC1N=Cc1c(O)n(Cc2ccc(F)cc2)c(=O)[nH]c1=O (stereo unspecified) |  | inactive: -18.7% |
| C#CCN1CC(=O)N(COC(=O)C2C(C=C(C)C)C2(C)C)C1=O (stereo unspecified) | inconclusive: 33.5 µM [inhibitor, single point] |  |
| CC1CN(CCc2ccccc2)CC(C)O1 (stereo unspecified) |  | inactive: 0.216% |
| O=C(Nc1ccccc1)c1cccn(Cc2ccccc2)c1=O | inconclusive: 29.1 µM [inhibitor, single point] |  |
| COc1ccc(C(=O)NC(=S)NNC(=O)c2cccnc2)cc1 | inconclusive: 29.1 µM [inhibitor, single point] |  |
| CCN(CC)CCCN(c1ccccc1)C1Cc2ccccc2C1 | inconclusive: 26.6 µM [inhibitor, partial curve, poor fit] |  |
| CCN(CC)P(=O)(Oc1cccc(C)c1)N(CC)CC | inconclusive: 20.6 µM [inhibitor, single point] |  |
| COc1ccc(OC(=O)N(C)C[C@H]2OCc3cnnn3CCCC(=O)N([C@H](C)CO)C[C@H]2C)cc1 |  | inactive: -3.09% |
| CCN(C[C@H]1N[C@@](CC)(C(=O)OC)[C@H]2C(=O)N(Cc3ccccc3)C(=O)[C@@H]12)C(=O)Nc1ccc(Cl)cc1 | active: 20.6 µM |  |
| O=c1[nH]c(=O)n(Cc2ccco2)c(O)c1C=NCCN1CCNCC1 |  | inactive: 3.44% |
| Cc1cc(C(=O)OC(C)C(=O)Nc2ccccc2)c(C)n1C1CC1 (stereo unspecified) | inconclusive: 29.1 µM [inhibitor, single point] |  |
